These results are taken from PubChem BioAssay AID602332 (National Center for Advancing Translational Sciences (NCATS), 2012).

Each structure is given as a SMILES string. Several values for one entry are separate records, joined by “and”; a condition that tells them apart may be missing. Identical values can stand only once. In all, about 420,000 compounds went through this assay and about 75 (0.02%) were called active. Calls follow the shape of the dose curve; as a rule, active = well fitted activation curve with a large enough effect; inconclusive = small, poorly fitted or top-dose-only effect; inactive = no such curve, though single readings can be large or run the other way. The list shows a part of the results, in another mix than the full data. A structure can be active in one record and inactive in another.
Potency is read from the fitted curve at half-maximal effect.

This test in a line: qHTS for Inducers of the Endoplasmic Reticulum Stress Response (ERSR) in Human Glioma: qHTS. Also: nearly all actives have a fitted effect of over 35% in size. As to activation: % of control where 0% means no effect. Particulars: U87-MG GRP78 promoter luciferase reporter, 16 h; activation: stronger effect = higher value. The method in brief:
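Stably transfected U87-MG human glioma cells carrying a GRP78-based luminescent sensor were seeded at 1000 cells/well, pin-dosed with compounds and incubated 16 h. Luciferase reagent was then added, and end-point luminescence was read after 10 min at room temperature.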
For orientation: In qHTS, concentration-response curves come from the screen itself.
Regarding `COc1ccc(CS(=O)(=O)/C(Cl)=C(/Cl)C(=O)Nc2ccc(OC)nc2)cc1`, the activation is inactive: -16.6%.
With `N#CC1=C(N)C(C#N)(C#N)C(c2cccnc2)C2CN(C(=O)OCc3ccccc3)CC=C12` (configuration not stated), the activation was inactive: -18.2%.
With `COc1ccc(NC2C[C@H]3CCCC(=O)N4CC[C@@H](C2)[C@@H]34)cc1` (some centres not stated), the Potency is active: 50.1 µM.
As for `O=C(Nc1nc2c(s1)C(=O)CCC2)c1ccccc1`, the activation was inactive: -13.2%.
Consider `O=C(O)CCCC[C@@H]1CCSS1`, for which the activation was inactive: -1.59% and inactive: 1.39%.
Still for that read-out and setting: the same measure for `CCOC(=O)C1CCN(C(=O)COc2ccc(Cl)cc2Cl)CC1`: inactive: -12.6%.
The same measure, in the same setting: the same measure for `COc1cc(OC)cc(C(=O)Nc2ccc3nc4n(c(=O)c3c2)CCCCC4)c1`: inactive: 0.288%; for `CC1CCN(c2ccc(-c3ccc(NC(=O)C(F)(F)F)cc3)nn2)CC1`: inactive: -14.2%; for `O=C(O)c1cc([N+](=O)[O-])ccc1NCCCc1ccccc1`: inactive: -2.68% and inactive: 12.2% and inactive: 2.57%.
Turning to `O=C(O)CCn1cc(/C=C\C(=O)c2ccc(Cl)cc2)c(-c2cccc(Br)c2)n1`, the activation is inactive: 5.47%.
The same measure, in the same setting: for `O=C(N/N=C/c1ccc2ncccc2c1)c1ccco1` the value was inactive: -14.2%; for `O=C(C[C@H]1C/C=C\C[C@@H](NC(=O)OCC2c3ccccc3-c3ccccc32)C(=O)O[C@@H](c2ccccc2)CNC1=O)N[C@H](CO)Cc1ccccc1`, inactive: -2.27%; for `Oc1ccc([C@@H]2CNCCc3c2cc(O)c(O)c3Cl)cc1`, inactive: 2.11%.
On the same count and under the same terms, the same measure for `O=C(Cn1ncc(Cl)c(Cl)c1=O)N1CCN(Cc2ccccc2)CC1`: inactive: -14.7%; for `Cc1cc(C(=O)Nc2cccc(C(=O)O)c2)oc1C`: inactive: -16.2%; for `Cn1c(SCC(=O)Nc2ccc(F)cc2)nc2c([nH]c3ccccc32)c1=O`: inactive: -2.45%.
Take `CC(CNC(=O)c1cc(Cl)ccc1[N+](=O)[O-])NC(=O)c1cc(Cl)ccc1[N+](=O)[O-]` (configuration not stated): the activation is inactive: -18.2%.
Take `CCCC(=O)Nc1cnc(NC(=O)c2cccc(F)c2)cc1C`: the activation was inactive: -14.1%.
For the molecule `C[C@H]1CN([C@@H](C)CO)S(=O)(=O)c2ccc(Br)cc2O[C@H]1CN(C)C(=O)c1cccc(F)c1`, the activation is inactive: -2.06%.
Still for that read-out and setting: for `C=CC[C@@H](CC(=O)OC(C)(C)C)C(=O)OC[C@H]1CCCN1C(=O)[C@@H](CC=C)CC(=O)N[C@H](CO)Cc1ccccc1` the value was inactive: -2.89%; for `NS(=O)(=O)C#Cc1ccccc1`, inactive: -11.7% and inactive: -12.8%.
In the case of `O=C(Oc1ccccc1C(=O)Nc1ccccc1)c1ccc(Br)c([N+](=O)[O-])c1`, the Potency was active: 31.6 µM.
Regarding `O=C(NCc1ccccc1)c1nc(S(=O)(=O)Cc2ccccc2)ncc1Cl`, the activation is inactive: -14.9%.
For the molecule `CCSC1(SCC)N=C(N)C2(C#N)C(c3ccc(OC)c(OC)c3OC)C12C#N` (configuration not stated), the activation is inactive: -16.6%.
With `CCC(C)(C)NC(=O)C(c1cccn1C)N(Cc1ccc(OC)cc1)C(=O)Cn1nnc2ccccc21` (configuration not stated), the activation was inactive: -17.8%.
As for `COC(=O)COc1ccc2c(-c3ccc(OC)cc3)cc(=O)oc2c1`, the Potency was active: 25.1 µM.
Consider `Cc1ccccc1OCC(O)CNC1CCC(NCC(O)COc2ccccc2C)CC1` (configuration not stated), for which the activation was inactive: -14.5%.
For `C=C1C(=O)OC2C1CC/C(C)=C/CCC1(C)OC21` (configuration not stated), the activation was inactive: -11.5%.
Consider `Oc1cc(O)cc(/C=C/c2ccc(O)c(O)c2)c1`, for which the activation was inactive: 3.76% [middle of 5 runs].
With `O=C(Nc1nccs1)c1sc2ccccc2c1Cl`, the activation is inactive: -13.2%.
In the case of `OCCN1CCN(C2Cc3cc(Cl)ccc3Sc3ccc(Cl)cc32)CC1` (configuration not stated) (tested in a mixture with another compound), the activation was inactive: -18.6%.
Consider `C=C1C(=O)OC2CC1C(OC(C)=O)CC(C)=CCCC(C)=CCC[C@@]2(C)O` (some centres not stated), for which the activation is inactive: -12.3%.
